# According to patent publication US9388196B2, “Thiazole derivatives as alpha 7 nAChR modulators” (Lupin Limited, priority 2012, dated 2016):
# Some of these results come from one statement about several compounds together.
# Target: T1, α7 nAChR (Homo sapiens, UniProt P36544)
# T1 construct: human IMR-32 cells with native expression of α7 nAChR; endogenous in cells; host or cells: IMR-32 (human neuroblastoma)
# Test: cell-based real-time kinetic FLIPR Ca2+ assay, potentiation of agonist response (fold PAM activity)
# Conditions: 1 μM test compound; human IMR-32 cells with native α7 nAChR; agonist PNU-282987, 10 μM; fold increase over agonist-alone effect
# T1 sequence (P36544 23-502): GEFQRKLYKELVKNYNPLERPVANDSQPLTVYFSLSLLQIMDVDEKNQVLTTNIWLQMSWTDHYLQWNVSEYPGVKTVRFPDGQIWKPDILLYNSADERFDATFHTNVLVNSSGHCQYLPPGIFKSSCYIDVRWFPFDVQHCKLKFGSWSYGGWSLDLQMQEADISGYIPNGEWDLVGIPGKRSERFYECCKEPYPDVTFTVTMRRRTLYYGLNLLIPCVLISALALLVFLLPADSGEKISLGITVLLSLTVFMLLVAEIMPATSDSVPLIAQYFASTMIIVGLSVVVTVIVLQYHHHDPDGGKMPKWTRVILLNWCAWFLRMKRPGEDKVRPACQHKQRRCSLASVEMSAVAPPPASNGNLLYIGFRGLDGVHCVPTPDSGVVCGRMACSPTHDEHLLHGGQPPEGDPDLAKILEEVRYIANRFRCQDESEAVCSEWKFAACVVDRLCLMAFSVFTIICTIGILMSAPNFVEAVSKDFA
row,SMILES,Fold activation at 1 μM conc. (Group)
1,"C[C@@H]1CN(c2nc(C(=O)N3CC4CC4C3)sc2-c2ccc(S(N)(=O)=O)cc2)C[C@H](C)O1 (relative stereo) [Compound 90, (cis) 4-(2-(3-azabicyclo[3.1.0]hexane-3-carbonyl)-4-(2,6-dimethylmorpholino)thiazol-5-yl)benzenesulfonamide]",A (compounds with activity between 1 to 5 folds are grouped as A)
2,"C[C@@H]1CN(c2nc(-c3ccc(Cl)cc3)c(-c3ccc(S(N)(=O)=O)cc3)s2)C[C@H](C)O1 [Compound 1, (cis) 4-(4-(4-chlorophenyl)-2-(2,6-dimethylmorpholino)thiazol-5-yl)benzenesulfonamide]",B (the compounds with activity between 5.1 folds and 15 folds are grouped as B)
3,"NS(=O)(=O)c1ccc(-c2sc(N3CCOCC3)nc2-c2ccc(Cl)cc2)cc1 [Compound 2, 4-(4-(4-chlorophenyl)-2-morpholinothiazol-5-yl)benzenesulfonamide]",C (the compounds with activity above 15 folds are grouped as C)
4,"CN1CCN(c2nc(-c3ccc(Cl)cc3)c(-c3ccc(S(N)(=O)=O)cc3)s2)CC1 [Compound 3, 4-(4-(4-chlorophenyl)-2-(4-methylpiperazin-1-yl)thiazol-5-yl)benzenesulfonamide]",B (the compounds with activity between 5.1 folds and 15 folds are grouped as B)
5,"NS(=O)(=O)c1ccc(-c2sc(N3CCCCC3)nc2-c2ccc(Cl)cc2)cc1 [Compound 4, 4-(4-(4-chlorophenyl)-2-(piperidin-1-yl)thiazol-5-yl)benzenesulfonamide]",C (the compounds with activity above 15 folds are grouped as C)
6,"C[C@@H]1C[C@H](C)CN(c2nc(-c3ccc(Cl)cc3)c(-c3ccc(S(N)(=O)=O)cc3)s2)C1 [Compound 5, (cis) 4-(4-(4-chlorophenyl)-2-(3,5-dimethylpiperidin-1-yl)thiazol-5-yl)benzenesulfonamide]",A (compounds with activity between 1 to 5 folds are grouped as A)
7,"C[C@@H]1CN(c2nc(C3CC3)c(-c3ccc(S(N)(=O)=O)cc3)s2)C[C@H](C)O1 [Compound 6, (cis) 4-(4-cyclopropyl-2-(2,6-dimethylmorpholino)thiazol-5-yl)benzenesulfonamide]",A (compounds with activity between 1 to 5 folds are grouped as A)
8,"NS(=O)(=O)c1ccc(-c2sc(N3CCCCC3=O)nc2-c2ccc(Cl)cc2)cc1 [Compound 10, 4-(4-(4-chlorophenyl)-2-(2-oxopiperidin-1-yl)thiazol-5-yl)benzenesulfonamide]",C (the compounds with activity above 15 folds are grouped as C)
9,"NS(=O)(=O)c1ccc(-c2sc(N3CCCC3=O)nc2-c2ccc(Cl)cc2)cc1 [Compound 11, 4-(4-(4-chlorophenyl)-2-(2-oxopyrrolidin-1-yl)thiazol-5-yl)benzenesulfonamide]",C (the compounds with activity above 15 folds are grouped as C)
10,"NS(=O)(=O)c1ccc(-c2sc(N3CCOCC3=O)nc2-c2ccc(Cl)cc2)cc1 [Compound 12, 4-(4-(4-chlorophenyl)-2-(3-oxomorpholino)thiazol-5-yl)benzenesulfonamide]",C (the compounds with activity above 15 folds are grouped as C)
11,"C[C@@H]1CN(C(=O)c2nc(-c3ccc(Cl)cc3)c(-c3ccc(S(N)(=O)=O)cc3)s2)C[C@H](C)O1 [Compound 13, (cis) 4-(4-(4-chlorophenyl)-2-(2,6-dimethylmorpholine-4-carbonyl)thiazol-5-yl)benzenesulfonamide]",C (the compounds with activity above 15 folds are grouped as C)
12,"NS(=O)(=O)c1ccc(-c2sc(C(=O)N3CCOCC3)nc2-c2ccc(Cl)cc2)cc1 [Compound 14, 4-(4-(4-chlorophenyl)-2-(morpholine-4-carbonyl)thiazol-5-yl)benzenesulfonamide]",A (compounds with activity between 1 to 5 folds are grouped as A)
13,"NS(=O)(=O)c1ccc(-c2sc(C(=O)N3CCCCC3)nc2-c2ccc(Cl)cc2)cc1 [Compound 18, 4-(4-(4-chlorophenyl)-2-(piperidine-1-carbonyl)thiazol-5-yl)benzenesulfonamide]",A (compounds with activity between 1 to 5 folds are grouped as A)
14,"C[C@@H]1C[C@H](C)CN(C(=O)c2nc(-c3ccc(Cl)cc3)c(-c3ccc(S(N)(=O)=O)cc3)s2)C1 [Compound 20, (cis) 4-(4-(4-chlorophenyl)-2-(3,5-dimethylpiperidine-1-carbonyl)thiazol-5-yl)benzenesulfonamide]",A (compounds with activity between 1 to 5 folds are grouped as A)
15,"NS(=O)(=O)c1ccc(-c2sc(C(=O)N3CCCC(F)(F)C3)nc2-c2ccc(Cl)cc2)cc1 [Compound 21, 4-(4-(4-chlorophenyl)-2-(3,3-difluoropiperidine-1-carbonyl)thiazol-5-yl)benzenesulfonamide]",A (compounds with activity between 1 to 5 folds are grouped as A)
16,"NS(=O)(=O)c1ccc(-c2sc(C(=O)N3CCC(F)(F)CC3)nc2-c2ccc(Cl)cc2)cc1 [Compound 22, 4-(4-(4-chlorophenyl)-2-(4,4-difluoropiperidine-1-carbonyl)thiazol-5-yl)benzenesulfonamide]",A (compounds with activity between 1 to 5 folds are grouped as A)
17,"NS(=O)(=O)c1ccc(-c2sc(C(=O)N3C[C@H](F)C[C@H](F)C3)nc2-c2ccc(Cl)cc2)cc1 [Compound 23, (cis) 4-(4-(4-chlorophenyl)-2-(3,5-difluoropiperidine-1-carbonyl)thiazol-5-yl)benzenesulfonamide]",A (compounds with activity between 1 to 5 folds are grouped as A)
18,"C[C@@H]1CN(C(=O)c2nc(-c3ccc(Cl)cc3)c(-c3ccc(S(N)(=O)=O)cc3)s2)CCN1C [Compound 27, (R)-4-(4-(4-chlorophenyl)-2-(3,4-dimethylpiperazine-1-carbonyl)thiazol-5-yl)benzenesulfonamide]",A (compounds with activity between 1 to 5 folds are grouped as A)
19,"C[C@@H]1CN(C(=O)c2nc(-c3ccc(C(F)(F)F)cc3)c(-c3ccc(S(N)(=O)=O)cc3)s2)C[C@H](C)O1 [Compound 28, (cis) 4-(2-(2,6-dimethylmorpholine-4-carbonyl)-4-(4-(trifluoromethyl)phenyl)thiazol-5-yl)benzenesulfonamide]",C (the compounds with activity above 15 folds are grouped as C)
20,"Cc1ccc(-c2nc(C(=O)N3C[C@@H](C)O[C@@H](C)C3)sc2-c2ccc(S(N)(=O)=O)cc2)cc1 [Compound 29, (cis) 4-(2-(2,6-dimethylmorpholine-4-carbonyl)-4-(p-tolyl)thiazol-5-yl)benzenesulfonamide]",B (the compounds with activity between 5.1 folds and 15 folds are grouped as B)
21,"C[C@@H]1CN(C(=O)c2nc(-c3ccc(F)cc3)c(-c3ccc(S(N)(=O)=O)cc3)s2)C[C@H](C)O1 [Compound 30, (cis) 4-(2-(2,6-dimethylmorpholine-4-carbonyl)-4-(4-fluorophenyl)thiazol-5-yl)benzenesulfonamide]",B (the compounds with activity between 5.1 folds and 15 folds are grouped as B)
22,"C[C@@H]1CN(C(=O)c2nc(-c3ccc(N(C)C)cc3)c(-c3ccc(S(N)(=O)=O)cc3)s2)C[C@H](C)O1 [Compound 31, (cis) 4-(4-(4-(dimethylamino)phenyl)-2-(2,6-dimethylmorpholine-4-carbonyl)thiazol-5-yl)benzenesulfonamide]",A (compounds with activity between 1 to 5 folds are grouped as A)
23,"C[C@@H]1CN(C(=O)c2nc(-c3ccc(S(C)(=O)=O)cc3)c(-c3ccc(S(N)(=O)=O)cc3)s2)C[C@H](C)O1 [Compound 32, (cis) 4-(2-(2,6-dimethylmorpholine-4-carbonyl)-4-(4-(methylsulfonyl)phenyl)thiazol-5-yl)benzenesulfonamide]",A (compounds with activity between 1 to 5 folds are grouped as A)
24,"C[C@@H]1CN(C(=O)c2nc(-c3ccc(C4CC4)cc3)c(-c3ccc(S(N)(=O)=O)cc3)s2)C[C@H](C)O1 [Compound 33, (cis) 4-(4-(4-cyclopropylphenyl)-2-(2,6-dimethylmorpholine-4-carbonyl)thiazol-5-yl)benzenesulfonamide]",A (compounds with activity between 1 to 5 folds are grouped as A)
25,"C[C@@H]1CN(C(=O)c2nc(-c3ccc(C#N)cc3)c(-c3ccc(S(N)(=O)=O)cc3)s2)C[C@H](C)O1 [Compound 34, (cis) 4-(4-(4-cyanophenyl)-2-(2,6-dimethylmorpholine-4-carbonyl)thiazol-5-yl)benzenesulfonamide]",A (compounds with activity between 1 to 5 folds are grouped as A)
26,"Cc1cc(-c2nc(C(=O)N3C[C@@H](C)O[C@@H](C)C3)sc2-c2ccc(S(N)(=O)=O)cc2)cc(C)n1 [Compound 35, (cis) 4-(2-(2,6-dimethylmorpholine-4-carbonyl)-4-(2,6-dimethylpyridin-4-yl)thiazol-5-yl)benzenesulfonamide]",A (compounds with activity between 1 to 5 folds are grouped as A)
27,"C[C@@H]1CN(C(=O)c2nc(-c3ccncc3)c(-c3ccc(S(N)(=O)=O)cc3)s2)C[C@H](C)O1 [Compound 36, (cis) 4-(2-(2,6-dimethylmorpholine-4-carbonyl)-4-(pyridin-4-yl)thiazol-5-yl)benzenesulfonamide]",A (compounds with activity between 1 to 5 folds are grouped as A)
28,"C[C@@H]1CN(C(=O)c2nc(-c3ccc(F)cc3F)c(-c3ccc(S(N)(=O)=O)cc3)s2)C[C@H](C)O1 [Compound 37, (cis) 4-(4-(2,4-difluorophenyl)-2-(2,6-dimethylmorpholine-4-carbonyl)thiazol-5-yl)benzenesulfonamide]",C (the compounds with activity above 15 folds are grouped as C)
